Screen size: about 46,000 compounds; about 60 (0.1%) were called active. Roughly 3% stayed inconclusive and do not appear here. Calls follow the shape of the dose curve; as a rule, active = well fitted inhibition curve with a large enough effect; inconclusive = small, poorly fitted or top-dose-only effect; inactive = no such curve, though single readings can be large or run the other way. The list shows a part of the results.
assay: Primary qHTS assay for Inhibitors of ovarian cancer metastasis using an organotypic tumor microenvironment (TME) model.; also: nearly all actives have a fitted effect of over 65% in size;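 as to activity change, negative = inhibition: plate controls were DMSO wells for no effect and tomatine positive control wells for full effect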; conditions: SKOV3ip1-GFP adhesion/invasion on 3D omental model, fluorescence; series mostly up to 45.8 µM; activity change, negative = inhibition: at the top concentration
Summary of the method: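 Primary human omental fibroblast/mesothelial 3D culture pre-formed 48 h. SKOV3ip1-GFP cells added with compounds (0.36-46 umol/L), incubated 2 h RT/16 h 37 C, fixed; GFP cells quantified at 488/509 nm.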

Activity change, negative = inhibition, inactive:
Cc1cc(C)c(Cn2c(C3CC(=O)N(c4ccc(F)cc4)C3)nc3ccccc32)c(C)c1 (stereo not given) -0.94%
CC(C)OC(=O)c1c(-c2ccccc2)c(-c2ccccc2)nn(C)c1=O 2.4%
COc1cccc(NC(=O)CSc2nc(=O)n(Cc3ccncc3)c3c2CCC3)c1 -5.46%
CCCN1CCN(c2ncnc3sc(C(=O)Nc4c(C)cc(C)cc4C)c(C)c23)CC1 81.1%
CCOC(=O)N1CCC2(CC1)OC(=O)C(C)=C2C(=O)NCc1cccc(F)c1 -6.37%
CCC1CN(S(=O)(=O)c2cc(-c3onc(C)c3C)ccc2C)c2cc(Cl)ccc2O1 (stereo not given) 7.12%
CCc1ccc(C(=O)c2cn(CC(=O)Nc3ccc(OC)cc3)c3cc4c(cc3c2=O)OCO4)cc1 0.308%
C#CCOc1ccc(C2CC(=O)Nc3c2c(C)nn3-c2nc(C)cc(C)n2)cc1 (stereo not given) 4.39%
NS(=O)(=O)c1ccc(NC(=O)C(=O)Nc2ccc3nc4n(c(=O)c3c2)CCCCC4)cc1 -3.99%
O=C1c2c(O)cc(O)cc2OC(c2ccc(O)c(O)c2)C1O (stereo not given) -12.6%
CCCCCCSc1nnc2c(n1)OC(C)Nc1ccc(Br)cc1-2 (stereo not given) -1.04%
Cc1c(C(=O)Nc2cccc(-c3nc4ccccc4s3)c2)oc2ccccc12 -7.83%
CCOc1ccc2nc(N3CCCC(C(=O)Nc4cc(Cl)c(OC)cc4OC)C3)sc2c1 (stereo not given) 8.16%
COc1ccc(CNC(=O)c2ccc(NC(=O)N3CCSc4ccccc43)cc2)cc1 -6.48%
CSc1nn(Cc2cccc(C)c2)c(N)c1S(=O)(=O)c1ccccc1 -0.75%
COc1ccc(Nc2nccc(NCCO)n2)cc1 -9.77%
Cc1ccc2nc(-c3ccc(NC(=O)c4ccc(S(C)(=O)=O)cc4)cc3)sc2c1 -18.2%
Cc1ccc(NC(=O)CC(C)S(=O)(=O)c2ccc3c(c2)NC(=O)CO3)c(Cl)c1 (stereo not given) -7.42%
CC(C)c1ccc2oc(-c3ccc(NC(=O)c4cccc(Br)c4)cc3)nc2c1 4.34%
CCc1ccc(CNCc2c(C(=O)O)n(Cc3ccc(C)cc3)c3cc(C)ccc23)cc1 -7.66%
COc1cc2c(=O)n(CCC(=O)NCC3CCCO3)c(=O)n(CC(=O)Nc3ccc(C)cc3C)c2cc1OC (stereo not given) -0.252%
Cc1ccccc1Cn1c2ccccc2c2cnn(CC(=O)NC3CCC(C)CC3)c(=O)c21 (stereo not given) -2.41%
Cc1ccc(C)c(N2CCN(CCCNC(=O)c3ccc4nc(N5CCC(C)CC5)sc4c3)CC2)c1 3.28%
CCc1c(C)c2cc3c(c(C)c2oc1=O)OCN(CCc1ccc(OC)c(OC)c1)C3 -2.67%
CCc1ccc(C2=NN(CCC(=O)NCCc3ccccc3)C(=O)CC2)cc1 -5.94%
COc1ccc(N(CC(=O)NCCc2ccccc2)S(=O)(=O)c2c(C)nn(C)c2C)cc1 -27%
CCc1cccc(NC(=O)C(Cc2ccccc2)NS(=O)(=O)c2cccs2)c1 (stereo not given) 0.615%
Cc1ccc(N2CCN(C(=O)Cn3ncc4c([nH]c5ccc(C)cc54)c3=O)CC2)c(C)c1 9.39%
CC(C)CC(=O)Nc1nnc(S(=O)(=O)N2c3ccccc3CC2C)s1 (stereo not given) 0.812%
CCc1nc2ccc(C(=O)N3CCN(c4cccc(Cl)c4)CC3)cc2nc1CC -0.0539%
CC(C)c1ccc(Nc2sc(C(=O)c3ccccc3)c(N)c2S(=O)(=O)c2ccccc2)cc1 -3.11%
CCOc1ccc(C(=O)NCCc2csc(-c3cccc(C)c3)n2)cc1 -4.34%
CCC1(C)CC(=O)c2c(ccc3oc(C(=O)Nc4ccc(C(C)=O)cc4)c(C)c23)O1 (stereo not given) 5.69%
COc1ccc(-c2cc3ccc(O)c(CN4CCN(C)CC4)c3oc2=O)cc1OC -1.43%
COc1cc(CNC(=O)c2cnc3c(-c4cccc(C)c4)c(C)nn3c2C)cc(OC)c1OC -1.66%
CCOc1ccc(CCNC(=O)CCCn2c(=O)c3cccn3c3cccnc32)cc1 -1.35%
Nc1cc(=O)nc(SCC(=O)Nc2ccccc2)n1CCc1ccccc1 -3.06%
COC1CCC(N(C(=O)C2CCC(C)CC2)c2cc(C3=CCCCC3)sc2C(=O)O)CC1 (stereo not given) -18.2%
CCCc1ccc(OCC(=O)Nc2sc3c(c2C(=O)OCC)CCC(C(C)(C)C)C3)cc1 (stereo not given) -9.67%
O=C(NC1CC(=O)N(c2ccc(Cl)cc2)C1)c1cc2ccccc2o1 (stereo not given) -2.6%
CC(=O)Nc1ccc(Nc2ccc3cc(S(=O)(=O)N4CCCCC4)ccc3n2)cc1 -4.01%
COc1ccc2[nH]cc(CCNC(=O)Nc3cc(C)cc(C)c3)c2c1 2.32%
O=c1c2cccnc2n(Cc2cccc(F)c2)c(=O)n1Cc1ccc(F)cc1 0.205%
Cc1ccc2nc3c(cc(C(=O)NC4CCCC4)c(=N)n3C(C)C)c(=O)n2c1 -3.27%
COc1ccccc1Nc1nc(-c2ccccc2)c(CC(=O)O)s1 -2.47%
O=C1Cc2cc(S(=O)(=O)Nc3ccc(OC(F)(F)F)cc3)cc3c2N1CCC3 -3.02%
CCOC(=O)c1c(NC(=O)C(C)Sc2cn(CCNC(=O)c3ccc(OCC)cc3)c3ccccc23)sc2c1CCC2 (stereo not given) -15.8%
O=C(O)C1=CO[C@@H](O[C@@H]2O[C@H](CO)[C@H](O)[C@H](O)[C@H]2O)[C@@H]2C(CO)=CC[C@H]12 -3.49%
CCOC(=O)c1ccc(NC(=O)Cn2nc(C)c3nn(-c4ccc(Cl)cc4)c(C)c3c2=O)cc1 -7.82%
CCc1nc2nc(C)cc(Nc3cc(C)ccc3C)n2n1 -15.1%
COc1ccc(N2CC(NC(=O)C(c3ccccc3)c3ccccc3)CC2=O)cc1 (stereo not given) 40.1%
COCCn1ccc2c(OCC(=O)Nc3cccc(C(F)(F)F)c3)cccc2c1=O 4.24%
CCOC(=O)c1c(S(=O)(=O)N2CCC(C(=O)NCc3ccccc3Cl)CC2)c(C)n(C)c1C -14.1%
COc1ccccc1CNC(=O)C1CCN(S(=O)(=O)Cc2ccccc2)CC1 -7.77%
Cc1nc2nc[nH]n2c(=O)c1NS(=O)(=O)c1ccc(Br)cc1 0.748%
CC(c1cc2ccccc2s1)N(O)C(N)=O (stereo not given) -14.4%
Clc1ccc(CSc2nncn3c2cc2occc23)cc1 -17.5%
CC1=C(c2ccc(Cl)cc2)S(=O)(=O)N=C1N1CCN(c2cc(C)ccc2C)CC1 -5.2%
Cc1cc2[nH]c(=O)c(=O)[nH]c2cc1S(=O)(=O)N1CCN(c2ccccc2F)CC1 -6.38%
COc1ccc2sc(N(Cc3cccnc3)C(=O)CCc3ccccc3)nc2c1 2.5%
COc1cccc(Cn2c(=O)n(Cc3ccccc3)c(=O)c3c2c2cc(OC)ccc2n3C)c1 -4.13%
Cc1cc(C)cc(-n2c(SCC(=O)Nc3ccc4c(c3)OCO4)nc3c([nH]c4ccccc43)c2=O)c1 -1.91%
Cc1cccc(N(C)S(=O)(=O)c2ccc3c(c2)NC(=O)CC(=O)N3)c1 -0.0817%
COc1ccc(CNC(=O)C(=O)NCC(c2cccnc2)N2CCN(c3ccccc3)CC2)cc1 (stereo not given) 2.81%
O=C(CSc1nc(=O)n(Cc2ccncc2)c2c1CCC2)Nc1cccc(F)c1 -0.75%
CCc1ccc(NC(=O)CNC(=O)Cn2c(C)cc3ccccc3c2=O)cc1 -5.67%
Clc1ccc(-c2cn3cc(Cc4ccccc4)sc3n2)cc1 5.36%
COc1cc(C2CC(=O)c3c([nH]c(C(=O)OC4CCCC4)c3C)C2)cc(OC)c1OC (stereo not given) 0.71%

outcome, inactive:
CC(C)CCN(C(=O)Nc1ccccc1)C(C)c1cccs1 (stereo not given)
Cc1cccc(NC(=O)CN2C(=O)c3cccc4cccc2c34)c1C
NC(=O)C1(N2CCCCC2)CCN(C(=O)Nc2ccc(F)cc2F)CC1
Cc1cccc(-n2ncc3c(N4CCCC(C)C4)ncnc32)c1 (stereo not given)
Cc1cccc(C(=O)N2c3nc(-c4ccco4)nn3C3(CCCCC3)[C@@H]3CCCC[C@@H]32)c1
Cc1cc(NC(=O)C2CCN(S(=O)(=O)c3cccc4nsnc34)CC2)ccc1Br
Cc1ccc(Cn2ccnc2SCC(=O)Nc2nc3ccccc3s2)cc1
O=c1ccc(-c2ccccc2)nn1Cc1ccc(F)cc1Cl
CCOC(=O)c1ccccc1NC(=O)COc1ccccc1-c1nnc(-c2ccccc2)o1
COc1cc(NC(=O)C(CC(C)C)NS(=O)(=O)c2ccc3c(c2)CCN3C(C)=O)cc(OC)c1 (stereo not given)
COc1cc2c(cc1OC)C(CC(=O)O)N(C(=O)Nc1cc(OC)c(OC)c(OC)c1)CC2 (stereo not given)
CC(=O)c1ccc(Nc2cc(C)nc3nc(Cc4ccccc4)nn23)cc1
COc1ccc(-n2c(=O)c3c4c(sc3n(Cc3ccccc3C)c2=O)CCCC4)c(OC)c1
CCCn1c2ccccc2c2cnn(CC(=O)Nc3cc(OC)c(OC)c(OC)c3)c(=O)c21
CCOCCOC(=O)c1ccc2c(c1)N(Cc1ccccc1C#N)C(=O)c1ccccc1S2(=O)=O
CCc1ccc(C(=O)COC(=O)C(NC(=O)C2CCC(C)CC2)C(C)C)cc1 (stereo not given)
CCC(Nc1ccc(-c2nc(-c3cccnc3)no2)cc1[N+](=O)[O-])c1ccccc1 (stereo not given)
Cc1cccc(CNS(=O)(=O)c2ccc(-c3coc(C)n3)cc2)c1
COc1ccc2c(c1)c1c(c(=O)n(-c3cccc(C)c3)c(=O)n1CC(=O)NCCC1=CCCCC1)n2C
CCOC(=O)c1c(-c2ccc(OC)c(OC)c2)csc1NC(=O)c1ccccc1F
COc1ccc(S(=O)(=O)c2nnn(-c3cccc(Cl)c3)c2N)cc1
CCOC(=O)c1cc(-c2ccc(OC)c(S(=O)(=O)N3CCN(c4ccccc4)CC3)c2)on1
Cc1ccccc1OCC(=O)Nc1ccc2nc(SCC(=O)N3CCCC3)sc2c1
Cc1cccc(N2CCN(C(=O)c3cnn(-c4ccccc4)c3C3CCN(C(=O)OC(C)(C)C)CC3)CC2)c1C
Cc1ccc(Nc2ncnc3c2nc2n3CCCC2)cc1F
CCCN1CCCc2cc(CN(CCCN3CCOCC3)C(=O)Nc3ccc(Cl)c(Cl)c3)ccc21
CCOc1ccc(CCNC(=O)c2ccc(CSCc3ccccc3C)o2)cc1OCC

Reference: PubChem BioAssay AID1963576 (National Center for Advancing Translational Sciences (NCATS), 2024)
